Data as given in US20260297081A1, “COMPOUNDS AND METHODS OF TREATING CANCERS” (Cullgen Inc., priority 2023, published 2026).
At least one read-out could not be matched to a standard name with certainty.

Tested on: cyclin D1
Assay: HiBiT detection of HiBiT-tagged cyclin D1 protein level in MCF7 cells, 16 hours (Table 8)
Assay type: cell-based
Conditions: MCF7 cells stably expressing HiBiT tagged target proteins

Structure (SMILES)	% Cyclin D1 Relative Level (10 nM)	% Cyclin D1 Relative Level (100 nM)
CNc1ccc(C(=O)Nc2ccc(N(C)C)nn2)c(NCCCCNC(=O)CN2CCN(Cc3ccc(Nc4ncc(F)c(-c5cc(F)c6nc(C)n(C(C)C)c6c5)n4)nc3)CC2)n1 [CPD-610, N-(6-(dimethylamino)pyridazin-3-yl)-2-((4-(2-(4-((6-((5-fluoro-4-(4-fluoro-1-isopropyl-2-methyl-1H-benzo[d]imidazol-6-yl)pyrimidin-2-yl)amino)pyridin-3-yl)methyl)piperazin-1-yl)acetamido)butyl)amino)-6-(methylamino)nicotinamide]	C (Relative protein level >85%)	C (Relative protein level >85%)
CNc1ccc(C(=O)Nc2ccc(N(C)C)nn2)c(NCCCCCNC(=O)CN2CCN(Cc3ccc(Nc4ncc(F)c(-c5cc(F)c6nc(C)n(C(C)C)c6c5)n4)nc3)CC2)n1 [CPD-611, N-(6-(dimethylamino)pyridazin-3-yl)-2-((5-(2-(4-((6-((5-fluoro-4-(4-fluoro-1-isopropyl-2-methyl-1H-benzo[d]imidazol-6-yl)pyrimidin-2-yl)amino)pyridin-3-yl)methyl)piperazin-1-yl)acetamido)pentyl)amino)-6-(methylamino)nicotinamide]	C (Relative protein level >85%)	C (Relative protein level >85%)
CNc1ccc(C(=O)Nc2ccc(N(C)C)nn2)c(NCCCCCCNC(=O)CN2CCN(Cc3ccc(Nc4ncc(F)c(-c5cc(F)c6nc(C)n(C(C)C)c6c5)n4)nc3)CC2)n1 [CPD-612, N-(6-(dimethylamino)pyridazin-3-yl)-2-((6-(2-(4-((6-((5-fluoro-4-(4-fluoro-1-isopropyl-2-methyl-1H-benzo[d]imidazol-6-yl)pyrimidin-2-yl)amino)pyridin-3-yl)methyl)piperazin-1-yl)acetamido)hexyl)amino)-6-(methylamino)nicotinamide]	C (Relative protein level >85%)	C (Relative protein level >85%)
CNc1ccc(C(=O)Nc2ccc(N(C)C)nn2)c(NCCCCCCCNC(=O)CN2CCN(Cc3ccc(Nc4ncc(F)c(-c5cc(F)c6nc(C)n(C(C)C)c6c5)n4)nc3)CC2)n1 [CPD-613, N-(6-(dimethylamino)pyridazin-3-yl)-2-((7-(2-(4-((6-((5-fluoro-4-(4-fluoro-1-isopropyl-2-methyl-1H-benzo[d]imidazol-6-yl)pyrimidin-2-yl)amino)pyridin-3-yl)methyl)piperazin-1-yl)acetamido)heptyl)amino)-6-(methylamino)nicotinamide]	C (Relative protein level >85%)	C (Relative protein level >85%)
CNc1ccc(C(=O)Nc2ccc(N(C)C)nn2)c(NCCCCCCCCNC(=O)CN2CCN(Cc3ccc(Nc4ncc(F)c(-c5cc(F)c6nc(C)n(C(C)C)c6c5)n4)nc3)CC2)n1 [CPD-614, N-(6-(dimethylamino)pyridazin-3-yl)-2-((8-(2-(4-((6-((5-fluoro-4-(4-fluoro-1-isopropyl-2-methyl-1H-benzo[d]imidazol-6-yl)pyrimidin-2-yl)amino)pyridin-3-yl)methyl)piperazin-1-yl)acetamido)octyl)amino)-6-(methylamino)nicotinamide]	C (Relative protein level >85%)	C (Relative protein level >85%)
CNc1ccc(C(=O)Nc2ccc(N(C)C)nn2)c(NCCOCCNC(=O)CN2CCN(Cc3ccc(Nc4ncc(F)c(-c5cc(F)c6nc(C)n(C(C)C)c6c5)n4)nc3)CC2)n1 [CPD-615, N-(6-(dimethylamino)pyridazin-3-yl)-2-((2-(2-(2-(4-((6-((5-fluoro-4-(4-fluoro-1-isopropyl-2-methyl-1H-benzo[d]imidazol-6-yl)pyrimidin-2-yl)amino)pyridin-3-yl)methyl)piperazin-1-yl)acetamido)ethoxy)ethyl)amino)-6-(methylamino)nicotinamide]	C (Relative protein level >85%)	C (Relative protein level >85%)
CNc1ccc(C(=O)Nc2ccc(N(C)C)nn2)c(NCCC(=O)N2CCN(c3ccc(Nc4ncc5cc(C(=O)N(C)C)n(C6CCCC6)c5n4)nc3)CC2)n1 [CPD-616, 7-cyclopentyl-2-((5-(4-(3-((3-((6-(dimethylamino)pyridazin-3-yl)carbamoyl)-6-(methylamino)pyridin-2-yl)amino)propanoyl)piperazin-1-yl)pyridin-2-yl)amino)-N,N-dimethyl-7H-pyrrolo[2,3-d]pyrimidine-6-carboxamide]	C (Relative protein level >85%)	C (Relative protein level >85%)
CNc1ccc(C(=O)Nc2ccc(N(C)C)nn2)c(NCCCC(=O)N2CCN(c3ccc(Nc4ncc5cc(C(=O)N(C)C)n(C6CCCC6)c5n4)nc3)CC2)n1 [CPD-617, 7-cyclopentyl-2-((5-(4-(4-((3-((6-(dimethylamino)pyridazin-3-yl)carbamoyl)-6-(methylamino)pyridin-2-yl)amino)butanoyl)piperazin-1-yl)pyridin-2-yl)amino)-N,N-dimethyl-7H-pyrrolo[2,3-d]pyrimidine-6-carboxamide]	C (Relative protein level >85%)	C (Relative protein level >85%)
CNc1ccc(C(=O)Nc2ccc(N(C)C)nn2)c(NCCCCC(=O)N2CCN(c3ccc(Nc4ncc5cc(C(=O)N(C)C)n(C6CCCC6)c5n4)nc3)CC2)n1 [CPD-618, 7-cyclopentyl-2-((5-(4-(5-((3-((6-(dimethylamino)pyridazin-3-yl)carbamoyl)-6-(methylamino)pyridin-2-yl)amino)pentanoyl)piperazin-1-yl)pyridin-2-yl)amino)-N,N-dimethyl-7H-pyrrolo[2,3-d]pyrimidine-6-carboxamide]	C (Relative protein level >85%)	C (Relative protein level >85%)
CNc1ccc(C(=O)Nc2ccc(N(C)C)nn2)c(NCCCCCCC(=O)N2CCN(c3ccc(Nc4ncc5cc(C(=O)N(C)C)n(C6CCCC6)c5n4)nc3)CC2)n1 [CPD-620, 7-cyclopentyl-2-((5-(4-(7-((3-((6-(dimethylamino)pyridazin-3-yl)carbamoyl)-6-(methylamino)pyridin-2-yl)amino)heptanoyl)piperazin-1-yl)pyridin-2-yl)amino)-N,N-dimethyl-7H-pyrrolo[2,3-d]pyrimidine-6-carboxamide]	C (Relative protein level >85%)	C (Relative protein level >85%)
CNc1ccc(C(=O)Nc2ccc(N(C)C)nn2)c(NCCCCCCCC(=O)N2CCN(c3ccc(Nc4ncc5cc(C(=O)N(C)C)n(C6CCCC6)c5n4)nc3)CC2)n1 [CPD-621, 7-cyclopentyl-2-((5-(4-(8-((3-((6-(dimethylamino)pyridazin-3-yl)carbamoyl)-6-(methylamino)pyridin-2-yl)amino)octanoyl)piperazin-1-yl)pyridin-2-yl)amino)-N,N-dimethyl-7H-pyrrolo[2,3-d]pyrimidine-6-carboxamide]	B (55%< Relative protein level ≤85%)	C (Relative protein level >85%)
CNc1ccc(C(=O)Nc2ccc(N(C)C)nn2)c(NCCOCCC(=O)N2CCN(c3ccc(Nc4ncc5cc(C(=O)N(C)C)n(C6CCCC6)c5n4)nc3)CC2)n1 [CPD-622, 7-cyclopentyl-2-((5-(4-(3-(2-((3-((6-(dimethylamino)pyridazin-3-yl)carbamoyl)-6-(methylamino)pyridin-2-yl)amino)ethoxy)propanoyl)piperazin-1-yl)pyridin-2-yl)amino)-N,N-dimethyl-7H-pyrrolo[2,3-d]pyrimidine-6-carboxamide]	C (Relative protein level >85%)	C (Relative protein level >85%)
CNc1ccc(C(=O)Nc2ccc(N(C)C)nn2)c(NCCOCCOCCC(=O)N2CCN(c3ccc(Nc4ncc5cc(C(=O)N(C)C)n(C6CCCC6)c5n4)nc3)CC2)n1 [CPD-623, 7-cyclopentyl-2-((5-(4-(3-(2-(2-((3-((6-(dimethylamino)pyridazin-3-yl)carbamoyl)-6-(methylamino)pyridin-2-yl)amino)ethoxy)ethoxy)propanoyl)piperazin-1-yl)pyridin-2-yl)amino)-N,N-dimethyl-7H-pyrrolo[2,3-d]pyrimidine-6-carboxamide]	C (Relative protein level >85%)	C (Relative protein level >85%)
CNc1ccc(C(=O)Nc2ccc(N(C)C)nn2)c(NCCNC(=O)CN2CCN(c3ccc(Nc4ncc5cc(C(=O)N(C)C)n(C6CCCC6)c5n4)nc3)CC2)n1 [CPD-624, 7-cyclopentyl-2-((5-(4-(2-((2-((3-((6-(dimethylamino)pyridazin-3-yl)carbamoyl)-6-(methylamino)pyridin-2-yl)amino)ethyl)amino)-2-oxoethyl)piperazin-1-yl)pyridin-2-yl)amino)-N,N-dimethyl-7H-pyrrolo[2,3-d]pyrimidine-6-carboxamide]	C (Relative protein level >85%)	C (Relative protein level >85%)
CNc1ccc(C(=O)Nc2ccc(N(C)C)nn2)c(NCCCNC(=O)CN2CCN(c3ccc(Nc4ncc5cc(C(=O)N(C)C)n(C6CCCC6)c5n4)nc3)CC2)n1 [CPD-625, 7-cyclopentyl-2-((5-(4-(2-((3-((3-((6-(dimethylamino)pyridazin-3-yl)carbamoyl)-6-(methylamino)pyridin-2-yl)amino)propyl)amino)-2-oxoethyl)piperazin-1-yl)pyridin-2-yl)amino)-N,N-dimethyl-7H-pyrrolo[2,3-d]pyrimidine-6-carboxamide]	C (Relative protein level >85%)	C (Relative protein level >85%)
CNc1ccc(C(=O)Nc2ccc(N(C)C)nn2)c(NCCCCNC(=O)CN2CCN(c3ccc(Nc4ncc5cc(C(=O)N(C)C)n(C6CCCC6)c5n4)nc3)CC2)n1 [CPD-626, 7-cyclopentyl-2-((5-(4-(2-((4-((3-((6-(dimethylamino)pyridazin-3-yl)carbamoyl)-6-(methylamino)pyridin-2-yl)amino)butyl)amino)-2-oxoethyl)piperazin-1-yl)pyridin-2-yl)amino)-N,N-dimethyl-7H-pyrrolo[2,3-d]pyrimidine-6-carboxamide]	C (Relative protein level >85%)	C (Relative protein level >85%)
